The results in this text go back to the RNAGym collection of RNA variant scans (doi:10.1093/nar/gkz1192).

The source gives no read counts; variants with many changes may rest on few reads.

B1: CPEB3 Ribozyme (parent)
chain: UAACAGGGGGCCACAGCAGAAGCGUUCACGUCGCAGCCCCUGUCAGAUUCUGGUGAAUCUGCGAAUUCUGCUGUAUAUCUC

Variants of B1 are the subject of this data set. The experiment in a line: self-cleavage, relative activity (ratio to wild type); higher = more cleavage; in vitro, sequencing. In short, it runs like this:
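Barcoded CPEB3 ribozyme mutants, produced by rounds of error-prone PCR, self-cleaved while being transcribed with T7 RNA polymerase for 5 hours at 37°C and during a subsequent 15 min DNase I step before EDTA was added. Sequencing of template-switched cDNA on Illumina gave cleaved and total reads, and DNA sequencing assigned barcodes to variants. Each variant's relative activity is its cleaved/total read fraction divided by the unmutated ribozyme's fraction, averaged across three batches. A variant needed a minimum of 5 reads.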
Consider UAACGGGGGGCCACAGCAGAAGCGUUCACGUCGCCGCCCCUGUCAGAUUCUGGUGGAUCUGCGAAUUCUGCUGUAUAUCUC [A5G A35C A56G], for which the self-cleavage turned out to be 0.4. Turning to UAACGGGGGGCCACAGCAGAAGCGUUCACGUCGCAGCCCCUGUCAGAUUCUGGUGAAUCUGCGUAUUCUGCUGUAUAUCAC [A5G A64U U80A], the self-cleavage was determined as 0.61. On to UAACGGGGGGCCACAGCAGAAGCGUUCACGUCGCUGCCCCUGUCAGAUUCUGGUGAAUCUGCGAAUUCUGCUGCAUAUCUC [A5G A35U U74C], for which the self-cleavage was 0.4. Turning to UAACGGGGGGCCACAGCAGAAGCGUUCACGUCGCGGCCCCUGUCAGAUUCUGGUGAAUCUGCGAAUACUGCUGUAUGUCUC [A5G A35G U67A A77G], the self-cleavage was 0.97.

Regarding UAACGGGGGGCUAGAGCAGAAGCGUUCACGUCGCAGCCCCUGUCAGAUUCUGGUGAAUCUGCGAAUUCUGCUGUAUAUCUC [A5G C12U C14G], the self-cleavage turned out to be 0.89. For the variant UAACGGGGGGUCACAGCAGAAGCGUUCACGUCGCAGCCCCUGUCGGAUUCUGGUGAAUCAGCGAAUUCUGCUGUAUAUCUC [A5G C11U A45G U60A], the self-cleavage was determined as 0.07. As for UAACGGGGGGCCACAGCAGAAGCGUUCACGUCGCAGCCCCUGUCAGAUUCUGGUGAGUCUGCGGAUCCUGCCGUGUAUCUC [A5G A57G A64G U67C U72C A75G], the self-cleavage amounted to 0.2. In the case of UAACGGGGGGCUACAGCAGAAGCGUUCACGUCGCAGCCCCUGUCAAAUUCUGGUGGAUCUGCGAAUUCUGCUGUAUAUCUC [A5G C12U G46A A56G], the self-cleavage is 0.07. Regarding UAACGGGGGGCCACAGCAGAAGCGUUCACGUCGCAGCCCCUGUCAGGUUCUGGUGAAACUGCGAAUUCUGCUGUAUAUCUC [A5G A47G U58A], the self-cleavage turned out to be 0.21. Regarding UAACGGGGGGCUACAGCAGAAGCGUUCACGUCGCAGCUCCUGUCAGAUUCUGGUGAAUCUGCGAAUCCUGCUGUAUAUCUC [A5G C12U C38U U67C], the self-cleavage worked out at 0.22. With UAACGGGGGGCGGCAGCAGAAGCGUUCACGUCGCAGCCCCUGUCUGAUUCUGGUGAAUCUGCGAAUUCAGCUGUAUAUCCC [A5G C12G A13G A45U U69A U80C] the figure was 0.34. UAACGGGGGGCCACAGCAGAAGCGUUCACGUCGCCGCCCCUGUCAGAUUCUGGUGAAUCUGCGAAUUCUGCUGCAUGUCUC [A5G A35C U74C A77G]: the self-cleavage came to 0.83. Regarding UAACGGGGGGCUACAGCAGAAGCGUUCACGUCGCAGCCCCUGUCAGAUUCUGGUGAAUCUGCGAAUUCUGAUGUAUAUCUC [A5G C12U C71A], the self-cleavage turned out to be 0.15. Regarding UAACGGGGGGCCAAAGCAGAAGCGUUCACGUCACGGCCCCAGUCAGAUUCAGGUGAAUCUGCGAAUUCUGCUGUAUAUCUC [A5G C14A G33A A35G U41A U51A], the self-cleavage amounted to 0.06. For UAACGGGGGGCAACUGCAGAGGCGUUCACGUCGCAGCCCCUGUCGGAUUCUGGUGAAUCUGCGAAUCCUGCUGUAUUUCUC [A5G C12A A15U A21G A45G U67C A77U], the self-cleavage is 0.08. For UAACGGGGGGCCACAGCAGAAGCGUUCACGUCGCAGCCCCUGUCAGAUUCUGGUGGAUCUGCGAAUUCCGCUGUAUAUCUC [A5G A56G U69C] the value was 0.26; for UAACGGGGGGCCACAGCAGAAGCGUUCUCGUCGCAGCCCCUGUCCGAUUCUGGUGAAUCUGCGAAUUCUGCUGUAUAUCUC [A5G A28U A45C], 0.28. Regarding UAACGGGGGGCGACAGCAGAAGCGUUCACGUCGCAGCCCCUGUCAGAUUCUGGUGAAUCCGCGAAUUCUGCUGUAUAUCCC [A5G C12G U60C U80C], the self-cleavage was found to be 0.09.

On to UAACGGGGGGCCACAGCAGAAGCGUUCACGUCGCUGCCCCGGUCAGAUUCUGGUGAAUCUGCGAAUCCUGCUGUUUAUCUC [A5G A35U U41G U67C A75U], for which the self-cleavage turned out to be 0.27. UAACGGGGGGCCACAGCAGAAGCGUUCUCGUAGCAGCCCCUGCCAGAUUCUGGUGAAUCUGCGAAUUCUGCUGUAUACCUC [A5G A28U C32A U43C U78C]: the self-cleavage was 0.05. With UAACGGGGGGCCACAGCAGAAGCGUUCACGUCGCAGCCCCUGUCUGAUUCUGGUGAAUCUGCGAAUUCAGCUGUAUAUCCC [A5G A45U U69A U80C], the self-cleavage came to 0.44. In the case of UAACGGGGGGCCACAGCAGAAGCGUUCACGUCGCGGCCCCUGUCAGAUUCUGGUGAAUCUGCGAUUUCUGCUGUAUAUCUC [A5G A35G A65U], the self-cleavage was determined as 0.53. On to UAACGGGGGGCCACAGCAGAAGCGUUCACGUCGCAGCCCCUGUCAGAUUCUGGUGAGUCAGCGAAUCCUGCUGUAUUUCUC [A5G A57G U60A U67C A77U], for which the self-cleavage came out at 0.11. For UAACGGGGGGCCACAGCAGAAGCGUUCACGUCGCUGCCCCUGUCAGAUUCUGGUGAGUCUGCGAAUUCUGCUGUAUAUCUC [A5G A35U A57G], the self-cleavage amounted to 0.16. UAACGGGGGGCCACAGCAGAAGCGUUCUCGUCGCAGCCCCUGUCAGAUUCUGGUGAAUCUGCGAAUUCUGCAGUAUAUCUC [A5G A28U U72A]: the self-cleavage worked out at 0.36. With UAACGGGGGGUCACAGCAGAAGCGCUCACGUCGCAGCCCCUGUCAGAUUCUGGUGAAUCUGCGAAUUCUGCUGUAUAUCUC [A5G C11U U25C], the self-cleavage was found to be 0.33. Take UAACGGGGGGCCACAGCAGAAGCGUUCACGUCGCAGCCCCUGUCAGUUUCUGGUGAAUCUGCGAUUUCUGCUGUAUAUCUC [A5G A47U A65U]: the self-cleavage worked out at 0.22. For the variant UAACGGGGGGCCACAGCAGAAGCGUUCACGUCGCGGCCCCUGUCAGAUACUGGUGAAACUGCGAAUUCUGCUGUAUAUCUC [A5G A35G U49A U58A], the self-cleavage came to 0.37.

Consider UAACGGGGGGGCACAGCAGAAGCGUUCACGUCGCAGCCUCUGUCAGAUUCUGGUGAAUCUGCGAAUUCUGCUGUAUAUCUC [A5G C11G C39U], for which the self-cleavage was determined as 0.25. With UAACGGGGGGCCACAGCAGAAGCGUUCACGUCGCGACCCCUGUCAGAUUCUGGUGAAUCUGCGAAUUCUGCUGUAUAUCUC [A5G A35G G36A] the figure was 0.85; with UAACGGGGGGCCACAGCAGAAGCGUUCUCGUCGCAGCCCCUGUCAGAUUCUGGUGAAUCUGCGAAUUCUGCUGUAAUUCUC [A5G A28U U76A A77U], 0.48; with UAACGGGGGGCCACAGCAGAAGCGUUCACGUCGCAGCCCCUGUCGGAAUCCGGUGAAUCUGCGAAUUCUGCUGUAUAUCUC [A5G A45G U48A U51C], 0.48. For UAACGGGGGGCCACAGCAGAAGCGUUCACGUCGCAGCCCCUGUCAGAUUCUGGUGAAUCUGCGGAUUCCGCUGUAUAUCUC [A5G A64G U69C], the self-cleavage amounted to 0.16.

As to UAACGGGGGGCCACAGCAGAAGCGUUCACGUCGCAGCCCCUGUCAGAUUCUGGUGAGUCUGCGGAUUCUGCUGUAUAUCUC [A5G A57G A64G], the self-cleavage was 0.78.
